Data as given in PMC4336329 (PLoS ONE, 2015).
In all, about 310,000 compounds went through this assay and about 2,200 (0.71%) showed an effect of 50% or more. The effect is printed as a negative number. The list shows a part of the results.

Biological target: human ether-à-go-go-related gene (hERG) potassium channel (human, UniProt Q12809)
Assay: primary screen, population patch clamp on CHO cells stably expressing hERG

Sequence of human ether-à-go-go-related gene (hERG) potassium channel (Q12809 whole entry, looked up): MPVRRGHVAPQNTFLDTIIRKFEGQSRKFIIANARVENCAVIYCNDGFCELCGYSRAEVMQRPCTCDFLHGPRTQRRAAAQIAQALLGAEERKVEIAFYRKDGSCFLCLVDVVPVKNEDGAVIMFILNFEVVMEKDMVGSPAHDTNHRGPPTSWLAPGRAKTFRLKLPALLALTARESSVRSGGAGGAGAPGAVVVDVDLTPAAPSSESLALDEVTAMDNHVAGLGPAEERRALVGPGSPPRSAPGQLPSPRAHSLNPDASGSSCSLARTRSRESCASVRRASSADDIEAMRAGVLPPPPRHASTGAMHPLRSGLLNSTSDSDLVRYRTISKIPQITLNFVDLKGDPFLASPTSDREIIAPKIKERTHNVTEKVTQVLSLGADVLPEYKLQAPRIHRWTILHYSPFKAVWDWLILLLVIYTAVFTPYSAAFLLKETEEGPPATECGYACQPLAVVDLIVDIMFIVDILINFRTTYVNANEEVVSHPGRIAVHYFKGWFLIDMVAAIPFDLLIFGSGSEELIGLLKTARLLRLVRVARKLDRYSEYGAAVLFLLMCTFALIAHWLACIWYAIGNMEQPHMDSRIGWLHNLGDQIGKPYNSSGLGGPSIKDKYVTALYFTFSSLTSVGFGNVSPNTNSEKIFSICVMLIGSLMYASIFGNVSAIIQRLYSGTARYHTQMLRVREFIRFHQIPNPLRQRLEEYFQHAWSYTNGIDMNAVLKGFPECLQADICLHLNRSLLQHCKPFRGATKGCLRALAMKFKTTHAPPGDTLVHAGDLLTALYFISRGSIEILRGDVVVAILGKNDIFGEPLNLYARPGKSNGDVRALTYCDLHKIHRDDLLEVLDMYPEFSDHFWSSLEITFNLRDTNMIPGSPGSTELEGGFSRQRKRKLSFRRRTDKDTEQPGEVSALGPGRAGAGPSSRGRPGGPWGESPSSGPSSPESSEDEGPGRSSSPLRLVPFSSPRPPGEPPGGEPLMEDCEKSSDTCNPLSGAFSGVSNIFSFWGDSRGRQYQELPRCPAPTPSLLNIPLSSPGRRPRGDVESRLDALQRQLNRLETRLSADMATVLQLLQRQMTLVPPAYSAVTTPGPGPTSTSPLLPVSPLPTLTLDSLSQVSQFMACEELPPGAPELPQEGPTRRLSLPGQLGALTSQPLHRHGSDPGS

| Compound | hERG current change (%, negative = inhibition) at 1uM [%] |
| --- | --- |
| COc1ccc(Cl)c2sc(N(CCN(C)C)C(=O)CCS(=O)(=O)c3ccc(C)cc3)nc12.Cl | 2.98 |
| O=C(c1ccc(Cl)cc1Cl)N1CCSCC1 | 11.2 |
| Cc1cc(OCCN2CCCC2)ccc1C(C)C | 4.68 |
| N#C/C(=C\c1coc2ccccc2c1=O)C(N)=S | 13.5 |
| Cc1cc(/C=C2\C(=O)NC(=O)N(c3ccc(F)cc3)C2=O)c(C)n1-c1ccc(C(=O)O)cc1 | 13.8 |
| CCOc1ccc(S(=O)(=O)NC2CCCC2)cc1C | 17.9 |
| CCN(CC(=O)NCc1cccs1)C(=O)/C=C/c1cccc(Cl)c1Cl | 12.4 |
| CCc1ccc(-c2nc(CN3CCC(C(=O)N4CCN(c5ccccc5)CC4)CC3)c(C)o2)cc1 | -5.62 |
| Cc1oc(-c2ccccc2F)nc1CSCC(=O)NC1CCCC1 | 18.6 |
| CCNS(=O)(=O)c1ccc(CCC(N)=O)cc1 | 13.5 |
| Cc1nc2c(ccc3nc(NC(=O)Cc4ccccc4)sc32)s1 | 7.37 |
| COc1ccc(-c2cc(C(=O)N3CCCC3)no2)cc1 | 4.01 |
| CC1=NN(c2ccccc2)C(=O)/C1=C\C=C1\N(C)c2ccccc2C1(C)C | -4.05 |
| C=CCn1c(=N)c(C#N)cc2c(=O)n3ccccc3nc21 | -1.94 |
| Cn1nc(C(F)(F)F)c2cc(C(=O)Nc3ccc(F)c(Cl)c3)sc21 | 13.3 |
| O=C(C1CCN(C2CC(=O)N(c3ccc(Cl)cc3)C2=O)CC1)N1CCOCC1 (centres unmarked) | 2.01 |
| CCN(CC)C(=O)CCSc1nnc(-c2ccco2)o1 | 14.3 |
| CC1CCCC(NC(=O)CSc2nnnn2C)C1C (centres unmarked) | 13.2 |
| CCCCOC(=O)CSC1=C(C#N)C(c2ccc3c(c2)OCO3)CC(=O)N1 (centres unmarked) | 5.7 |
| CC(=O)Nc1c(O)nc(SCC(=O)N2CCN(c3ccc(F)cc3)CC2)[nH]c1=O | -5.78 |
| NC(=O)C1CCN(CC(=O)NC(=O)NC2CCCC2)CC1 | 7.5 |
| NC(=O)NCC(=O)N1CCC(C(O)(c2ccccc2)c2ccccc2)CC1 | 6.01 |
| Cc1cccc(OCC(=O)N(Cc2ccc(C)o2)C2CCS(=O)(=O)C2)c1 (centres unmarked) | -17.3 |

| Compound | hERG current change (%, negative = inhibition) at 1uM [%] |
| --- | --- |
| COC(=O)CN1C(=O)C(O)(CC(=O)c2ccccc2)c2ccccc21 (centres unmarked) | 12.5 |
| CCCc1cc(NCCCCO)n2c(nc3ccccc32)c1C#N | -18.6 |
| CC(C)CNc1cc(Cl)c(S(=O)(=O)NCC(C)C)cc1C(=O)O | 3.8 |
| O=C(CSCc1ccc(C(=O)O)cc1)Nc1ccc2ccccc2c1 | 10.6 |
| CC(C)CC1=NN(C(=O)c2ccncc2)C(O)(C(F)(F)F)C1 (centres unmarked) | 0.872 |
| CCCCC(CCC(=O)Nc1ccc(C(=O)OCC)cc1)C(=O)O (centres unmarked) | 15.7 |
| O=C(CSc1ccc2nnc(-c3ccccc3)n2n1)N1CCCCC1 | -6.22 |
| O=C(NNS(=O)(=O)c1ccccc1[N+](=O)[O-])c1ccc(O)cc1 | -16.1 |
| O=C(N/C(=C/c1ccccc1Cl)C(=O)N1CCCC1)c1ccccc1 | 9.54 |
| CCN(CC)S(=O)(=O)c1ccc2oc(Nc3ccc(OC)cc3)nc2c1 | 11.6 |
| COc1c(Br)cc([N+](=O)[O-])c(OC)c1C(=O)NC(=O)Nc1c(Cl)cccc1Cl | 9.18 |
| COc1ccc(/C=C2\SC(=O)N(CCNC(=O)C3CCN(S(=O)(=O)c4cccs4)CC3)C2=O)cc1 | 14.4 |
| CCOc1ccc2nc3sc(C(=O)N4CCN(C)CC4)c(N)c3cc2c1 | 14 |
| Cc1ccc(C)c(OCCn2nnc3ccccc32)c1 | 20.2 |
| CCOc1ccc(N(C(C)C(=O)Nc2cccnc2)S(C)(=O)=O)cc1 (centres unmarked) | 13.6 |
| CCn1c(=O)cc(OCC(=O)Nc2nc(C)cs2)c2ccccc21 | 10.1 |
| COc1ccc(CN2CCN(c3ccccn3)CC2)c(OC)c1C.O=C([O-])C(=O)[O-] | -23.1 |
| Cc1ccc(C(=O)O/N=C(\N)c2ccccn2)cc1 | 9.05 |
| O=S(=O)(NCCc1c[nH]c2ccccc12)c1ccccc1 | 15.5 |
| O=C(C1CCCN(S(=O)(=O)c2cccc3nsnc23)C1)N1CCC2(CC1)OCCO2 (centres unmarked) | 3.57 |
| Cc1ccccc1-n1nc2c(c1NC(=O)c1ccco1)CS(=O)(=O)C2 | 16.8 |
| O=C(Nc1ccc(S(=O)(=O)NC2CCCC2)cc1)c1cnccn1 | 7.58 |
| CC(C)C[C@H](NC(=O)[C@@H]1Cc2ccccc2CN1C(=O)OC(C)(C)C)C(=O)NCC1CCC(C(=O)O)CC1 (some centres unmarked) | 14.3 |

| Compound | hERG current change (%, negative = inhibition) at 1uM [%] |
| --- | --- |
| C=C1C(C(=O)N2CCN(C)CC2)C1C(=O)N1CCN(C)CC1 (centres unmarked) | 5.61 |
| c1ccc(OCc2nn3c(-c4ccncc4)nnc3s2)cc1 | 2.17 |
| COc1ccc(NC(=O)C(=S)NC2CCCCC2)cc1 | -12.1 |
| C=CCc1ccc(OCc2ccc(C(=O)Nc3ccc(NC(C)=O)cc3)o2)c(OC)c1 | 15.2 |
| COc1ccccc1N1CCN(CCCCN2C(=O)C3CCCCN3C2=O)CC1 (centres unmarked) | 1.46 |
| COc1cc(C(=O)NCCc2ccc(S(N)(=O)=O)cc2)cc(OC)c1OC | 12.6 |
| CCOc1ccc(CN(C)C(=O)c2cccnc2OCC)cc1OC | 9.62 |
| CCCCn1c(SC(C)C(=O)NCC2CCCO2)nc2cc(C(=O)OC)ccc2c1=O (centres unmarked) | -0.216 |
| COc1ccc2nc(N/C(N)=N/C(=S)Nc3c(C)cccc3C)nc(C)c2c1 | 4.86 |
| COc1ccc(/C=N/NC(=O)c2sccc2OCc2ccc(F)cc2)cc1OC | 12.4 |
| O=[N+]([O-])c1cccc(S(=O)(=O)NCC2CCCO2)c1 (centres unmarked) | 15.2 |
| O=C(N[C@@H](Cc1ccccc1)C(=O)NCCc1c[nH]c2ccccc12)c1ccco1 | 12.4 |
| CC1(C)Cc2cccc(OCC(=O)Nc3nccs3)c2O1 | 11.8 |
| COCCn1c(SCC(=O)N(C)c2ccccc2)nc2c([nH]c3ccccc32)c1=O | 8.01 |
| CCOC(=O)c1c(NC(=O)CSc2nnc(CNc3ccc(F)cc3)o2)sc(C)c1C | 0.229 |
| CCc1ccc(N=c2c([N+](=O)[O-])nn(-c3ccc4c(c3)OCCO4)n2O)cc1 | 4.65 |
| COc1ccc(NS(=O)(=O)c2ccc3nc(COc4ccc(C#N)cc4)[nH]c3c2)cc1 | 9.44 |
| Cc1ncc(CN2CCC(CO)(Cc3ccccc3)CC2)s1 | 4.55 |
| O=C(COC(=O)CCSc1ccc(Cl)cc1)NCc1ccc(Cl)cc1 | 7.98 |
| Cc1nn(CC2CC2)c(=O)n1-c1ccccc1F | 7.24 |
| CCCn1c(=O)c(C(=O)Nc2ccccc2C)c(O)c2ccccc21 | 9.39 |
| CCOc1cc(N2CCOCC2)c(OCC)cc1NC(=O)c1ccc2ccccc2n1 | 16.7 |
| COc1ccc(CNC(=O)CN(C(=O)CCC(=O)Nc2ccccn2)c2cccc(C)c2C)cc1 | 12.7 |

| Compound | hERG current change (%, negative = inhibition) at 1uM [%] |
| --- | --- |
| CCOCCn1c(CCCO)nc2ccccc21 | 10.3 |
| S=c1[nH]nc(COc2cccc3ccccc23)n1Cc1ccccc1 | 9.86 |
| N#Cc1c(/N=C/C2C(=O)NC(=S)NC2=O)sc2c1CCCC2 | 16.2 |
| CC(=O)c1cccc(NS(=O)(=O)c2cc3c(cc2C)NC(=O)CO3)c1 | -2.4 |
| COc1ccc(S(=O)(=O)N(C)CC(=O)NCc2ccco2)cc1 | 5.4 |
| CN1CCN(NC(=S)Nc2ccccc2)CC1 | 13.2 |
| C=CCN(C(=O)c1cccc(N2C(=O)C3CC=CC(C)C3C2=O)c1)c1ccccc1 (centres unmarked) | 3.82 |
| O=C(CCCn1cnc([N+](=O)[O-])n1)Nc1cccc(Cl)c1Cl | 6.16 |
| CCCCOC(=O)c1ccccc1C(=O)OCCCC | 16 |
| O=C(O)/C=C/C(=O)Nc1cccc2cccnc12 | 19.8 |
| Cc1ccccc1N1CCN(C2CCCN(C(=O)c3ccc(Cl)s3)C2)CC1 (centres unmarked) | 1.61 |
| Cc1ccccc1CSCCNC(=O)COc1ccc(Cl)cc1 | 1.64 |
| Cc1ccc2nc(-c3ccco3)c(Nc3ccccc3)n2c1 | 12.2 |
| CC(C)NC(=O)C(=O)Nc1cc2c3c(c1)C(C)C(=O)N3CCC2 (centres unmarked) | 19.1 |
| COc1ccc(/C=C/C(=O)Nc2ccc(C)cc2)cc1S(=O)(=O)N1CCOCC1 | -7.51 |
| O=C(NCc1ccco1)C1Cc2cc(Cl)ccc2O1 (centres unmarked) | 6.24 |
| O=C(CCn1nc(-c2ccc(Cl)cc2)c2ccccc2c1=O)Nc1cccnc1 | -4.9 |
| COc1ccc(CC(=O)NCCCc2ccccc2)cc1OC | 13.6 |
| CC(=O)Nc1ccc(S(=O)(=O)C(C#N)c2nc3ccccc3nc2NCCO)cc1 (centres unmarked) | 13.3 |
| CCCSc1nnc(N2C(=O)C(O)=C(C(=O)c3ccco3)C2c2ccccc2F)s1 (centres unmarked) | 15.3 |
